Results from PubChem BioAssay AID1159614 (National Center for Advancing Translational Sciences (NCATS), 2016).
The campaign covered roughly 45,000 compounds. About 65 (0.1%) were called active. Calls follow the shape of the dose curve; as a rule, active = well fitted activation curve with a large enough effect; inconclusive = small, poorly fitted or top-dose-only effect; inactive = no such curve, though single readings can be large or run the other way. The list shows a part of the results.

Target: Galactocerebrosidase (Homo sapiens) (UniProt P54803)
Assay: A Novel Cell-Based Assay to Identify Small Molecules for B -Galactocerebrosidase; also: 0% is about no effect; nearly all actives have a fitted effect of over 65% in size
Conditions: 145M-Twi-hGALC-G270D cells (Twitcher mouse brain line with human GALC G270D), HMU-beta-Gal fluorescence, 48 h; series mostly up to 57.5 µM; activation: at the top concentration
Summary of the method: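 Fluorogenic HMU-b-Gal hydrolysis (0.1 mM final, pH 5.2 citrate-phosphate with 1 mg/mL sodium taurocholate; carbonate stop buffer) measures mutant GALC activity after compound treatment of live 145M-Twi Twitcher brain cells stably carrying human GALC-G270D, with wild-type GALC line alongside; activation sought.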

Chain of UniProt P54803 (P54803 whole entry, looked up): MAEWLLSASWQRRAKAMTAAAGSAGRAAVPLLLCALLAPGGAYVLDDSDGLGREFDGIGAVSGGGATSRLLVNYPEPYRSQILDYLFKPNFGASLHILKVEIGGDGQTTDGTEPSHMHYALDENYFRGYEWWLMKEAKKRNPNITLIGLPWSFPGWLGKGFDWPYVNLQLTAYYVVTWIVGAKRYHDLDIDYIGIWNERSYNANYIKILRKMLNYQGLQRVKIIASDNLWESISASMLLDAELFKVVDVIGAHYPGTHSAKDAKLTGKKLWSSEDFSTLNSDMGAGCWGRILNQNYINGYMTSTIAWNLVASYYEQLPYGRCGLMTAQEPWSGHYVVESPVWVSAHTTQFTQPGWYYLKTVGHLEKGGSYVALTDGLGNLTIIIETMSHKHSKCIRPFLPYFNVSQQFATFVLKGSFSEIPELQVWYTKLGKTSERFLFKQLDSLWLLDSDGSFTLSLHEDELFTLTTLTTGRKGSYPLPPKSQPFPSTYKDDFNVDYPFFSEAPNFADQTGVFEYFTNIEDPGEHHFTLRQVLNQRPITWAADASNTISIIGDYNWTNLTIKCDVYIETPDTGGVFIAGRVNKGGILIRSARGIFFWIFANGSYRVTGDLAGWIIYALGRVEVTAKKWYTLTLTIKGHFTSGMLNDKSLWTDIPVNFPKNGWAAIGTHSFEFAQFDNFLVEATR

SMILES	activation
Cc1cc(C)cc(NC(=O)CSc2oc(-c3ccccc3)nc2S(=O)(=O)c2ccc(Cl)cc2)c1	inactive: -4.76%
CCOC(=O)c1ccccc1NC(=O)Cn1ncc2c1-c1ccccc1OC2	inactive: -29.8%
Cc1ccc(CNC(=O)c2nn(-c3ccc(Cl)cc3)nc2CO)cc1	inactive: -27%
Cc1ccccc1CSc1nnc2[nH]c(=O)cc(-c3ccccc3)n12	inactive: -20.6%
CCc1ccc(-n2c(=O)c3c4c(sc3n(Cc3cc(=O)n5c(C)cccc5n3)c2=O)CCC4)cc1	inactive: -1.69%
CCOC(=O)c1[nH]c2c(c1Cc1ccccc1OC)C(=O)CC(c1ccc(OC)cc1)C2 (stereo unspecified)	inactive: -6.66%
N=C1N=C(N)c2cc3ccccc3cc21	inactive: -11.3% [at 114 µM]
Cc1ccc(NC(=O)Cn2nc(C(F)(F)F)c3c2CCCC3)cc1C	inactive: -2.1%
Cc1ccc(N2C(=O)c3n[nH]c(C)c3C2c2ccc(Cl)cc2)cc1 (stereo unspecified)	inactive: -2.39%
Cc1ccc2c(c1)N(CC(=O)NCCc1ccccc1)C(=O)CO2	inactive: 2.32%
CCc1ccccc1NS(=O)(=O)c1ccc2nc(-c3ccccc3)[nH]c2c1	inactive: -2.95%
CC(C)OCCCNC(=O)C(=O)Nc1c2c(nn1-c1ccccc1)CS(=O)(=O)C2	inactive: -13.9%
Cc1ccc(C)c(NC(=O)CN2C(=O)C3(SCC(=O)N3c3ccc(C)c(C)c3)c3ccccc32)c1 (stereo unspecified)	inactive: -23.5%
O=C(Cn1nc(-c2ccccc2)c2cnc3ccccc3c21)Nc1ccccc1	inactive: -10.9%
Cc1ccc(Cn2nnc3sc4c(c3c2=O)CCC(C)C4)cc1 (stereo unspecified)	inactive: -10.7%
CCC(=O)N1CCc2cc(CNS(=O)(=O)c3c(C)cc(C)cc3C)ccc21	inactive: -13.5%
CC1=C(C(=O)Nc2cccnc2)C(c2ccccc2)n2nc(SCc3ccccc3)nc2N1 (stereo unspecified)	inactive: -4%
COC(=O)c1ccccc1NC(=O)c1cc(-c2ccc(Cl)cc2)on1	inactive: 5.62%
Cc1ccc2nc(-c3ccc(Cl)c(NC(=O)c4ccc5c(c4)OCCO5)c3)oc2c1	inactive: -21.1%
Cc1nnc(NCc2ccc(Cl)cc2)c2c1nnn2Cc1ccc(F)cc1	inactive: -30.7%
CC1CCc2nc3ncn(Cc4ccc(Cl)cc4)c(=O)c3cc2C1 (stereo unspecified)	inactive: -3.14%
CCCCOc1ccc(C(=O)Nc2ccc(S(=O)(=O)Nc3nc(C)cc(C)n3)cc2)cc1	inactive: -7.67%
Cc1nc2ccccc2n1CCc1nc2c3ccccc3nc(SCC(=O)Nc3cccc(C(F)(F)F)c3)n2n1	inactive: -7.98%
CCc1ccc2ncc(S(=O)(=O)c3ccc(Cl)cc3)c(N3CCN(CC)CC3)c2c1	inactive: -21.6%

SMILES	activation
Cn1c(=O)n(-c2ccc3c(c2)OCO3)c2nc(-c3ccc(Cl)cc3)nc(C(N)=O)c21	inactive: -6.07%
O=C(CCC1N=C2c3ccccc3N=C(SCc3ccccc3Cl)N2C1=O)NCCc1ccccc1 (stereo unspecified)	inactive: -19%
Cc1ccccc1NC(=O)CSc1nc(-c2ccc(F)cc2)nc2c1Cc1ccccc1O2	inactive: -1.91%
COc1ccc2c(Sc3ccccc3)c(C(=O)NCC(C)c3ccccc3)[nH]c2c1 (stereo unspecified)	inactive: -24.5%
Cc1cc(C)nc(NS(=O)(=O)c2ccc(NC(=O)c3ccccc3O)cc2)n1	inactive: 6.75%
COc1ccc(Br)cc1Cn1nnc(C(=O)Nc2ccc(C)cc2C)c1N	inactive: -13.8%
CCCCOc1ccc(C(=O)N2CC(=O)Nc3ccc(Br)cc3C2c2ccc(F)cc2)cc1 (stereo unspecified)	inactive: -8.48%
Cc1cc(C)cc(-n2c(SCC(=O)N3CCCC3)nc3c([nH]c4ccccc43)c2=O)c1	inactive: -21.4%
CCS(=O)(=O)N1CC(=O)N(c2ccc(Cl)cc2C)C(C)(C(=O)NC2CCCCCC2)C1 (stereo unspecified)	inactive: 2.96%
CCc1nnc(SCc2cccc(F)c2)c2cc3sc(C)cc3n12	inactive: -15.9%
CCOc1ccc(N2CC(c3nc4ccccc4n3CCCOc3ccccc3OC)CC2=O)cc1 (stereo unspecified)	inactive: -14.4%
COc1ccc(NC(=O)C2CCN(S(=O)(=O)c3ccc4[nH]c(=O)ccc4c3)CC2)cc1Cl	inactive: -20%
O=C(CCCl)NCc1ccccc1	inactive: -11.9%
COc1cc(OC)c(NC(=O)C(c2ccccc2)N2Cc3ccccc3C2=O)cc1Cl (stereo unspecified)	inactive: -6.32%
COc1ccc(N2CC(NC(=O)/C=C\c3ccc4c(c3)OCO4)CC2=O)cc1 (stereo unspecified)	inactive: -0.88%
CC(C)CN(CCCNC(=O)c1cc(-c2ccc(Br)s2)nc2ccccc12)CC(C)C	inactive: -4.17%
CCOC(=O)c1scc(-c2ccccc2)c1S(=O)(=O)Nc1ccc(N(C)C)cc1	inactive: -44.7%
COc1ccc(CCNC(=O)C2(c3cccs3)CCOCC2)cc1	inactive: 1.58%
O=C(Nc1nonc1-c1ccc(Cl)cc1)c1ccccc1F	inactive: 4.1%
Cc1cccc(CCNC(=O)C2CCC(CNS(=O)(=O)c3ccccc3)CC2)c1 (stereo unspecified)	inactive: -8.71%
CCCC(CCC)C(=O)Nc1cccc(-c2nc3cccnc3s2)c1C	inactive: -27.2%
COc1cccc(-c2nc(CS(=O)(=O)CC(=O)NCCc3ccc(OC)cc3OC)c(C)o2)c1	inactive: -19.9%
Cc1nn2c(C)c(C(=O)N3CCN(c4ccccc4F)CC3)cnc2c1-c1ccc(F)cc1	inactive: -2.88%
Cc1nnc(SCc2cc(=O)n3cccc(C)c3n2)s1	inactive: 19.4%

SMILES	activation
CCOc1cc(C(=O)Nc2ccc3nc(Nc4cccc(Cl)c4)cc(C)c3c2)cc(OCC)c1OCC	inactive: -13.5%
COCCCNC(=O)c1ccc(Cn2c(=O)c3ccccc3n(CC(=O)Nc3c(C)cccc3C)c2=O)cc1	inactive: -1.71%
CCCCCCNc1nc2c(c(=O)n(C)c(=O)n2C)n1Cc1cccc(C)c1	inactive: -37.5%
N#Cc1ccccc1Cn1c(=O)n(CCCC(=O)NCc2ccccc2Cl)c(=O)c2ccccc21	inactive: -2.93%
O=C(Nc1ccc(F)c(Cl)c1)C1CCN(C(=O)c2ccc(F)cc2)CC1	inactive: 7.38%
CNS(=O)(=O)Cc1ccc2[nH]cc(CCN(C)C)c2c1	inactive: -6.16%
COc1ccc(Cl)cc1NC(=O)CSC1=Nc2ccccc2C2=NC(CCC(=O)NCc3ccc(F)cc3)C(=O)N12 (stereo unspecified)	inactive: 0.545%
CCOC(=O)c1ccc(NC(=O)c2cnn(-c3ccc(C)cc3C)c2C2CCN(C(=O)OC(C)(C)C)CC2)cc1	inactive: -2.44%
CCOC(=O)c1c(NC(=O)CCCOc2ccc(Cl)cc2)sc2c1CCC2	inactive: -25.7%
COc1ccc(CNC(=O)c2ccc(NC(=O)N3CCSc4ncccc43)cc2)cc1OC	inactive: -11.9%
COc1ccc(-c2oc3ncn4nc(COc5ccc(C)cc5)nc4c3c2-c2ccc(OC)cc2)cc1	inactive: -19.2%
COc1cccc(CN(C(=O)c2ccc(C(C)(C)C)cc2)C2CCS(=O)(=O)C2)c1 (stereo unspecified)	inactive: -21.3%
O=C(NCCc1csc2nc(-c3ccccc3F)nn12)c1ccccc1C(F)(F)F	inactive: -11.6%
CCOC(=O)Cn1c(=O)oc2cc(S(=O)(=O)N3CCN(c4ccccc4OC)CC3)ccc21	inactive: -15.6%
CCCOc1ccc(C(=O)Nc2ccc3nn(-c4ccc(OC)c(Cl)c4)nc3c2)cc1	inactive: -11.2%
CCOc1ccc(-c2nnc(SCC(=O)Nc3cc(F)ccc3F)o2)cc1	inactive: -15.2%
COCCCNC(=O)c1ccc(Cn2c(=O)c3ccccc3n(Cc3ccccc3C)c2=O)cc1	inactive: -14.5%
COc1cccc2c1Oc1nc(-c3ccccc3)nc(SCC(=O)Nc3ccccc3)c1C2	inactive: -3.96%
O=C(C1CCCN(S(=O)(=O)c2cccc3nonc23)C1)N1CCN(c2ccccc2Cl)CC1 (stereo unspecified)	inactive: -3.15%
Nc1nonc1-c1nc2ccccc2n1Cc1c(Cl)cccc1Cl	inactive: -4.89%
COc1ccc(N(CC(=O)NCCc2ccccc2)S(=O)(=O)c2ccc(OC)c(OC)c2)cc1	inactive: -7.71%
COc1ccc(CCNC(=O)c2ccc3nc(Cc4ccccc4)oc3c2)cc1OC	inactive: -22.2%
COc1ccc(NC(=O)c2cnn(-c3ccc(F)cc3F)c2C2CCN(C(=O)OC(C)(C)C)CC2)cc1Cl	inactive: 3.64%
Cc1cc(O)c(C(c2ccc(Cl)cc2)N2CCN(c3ccccc3)CC2)c(=O)n1Cc1ccco1 (stereo unspecified)	inactive: -15.7%

SMILES	activation
Fc1ccc(-c2cn3cc(Cc4ccccc4Cl)sc3n2)cc1	inactive: -0.951%
Cc1cc2ccccc2n1CCNC(=O)c1ccc(F)cc1	inactive: -8.78%
CCN1C(=O)C2(c3ccccc31)c1c(oc3ccc(C)cc3c1=O)C(=O)N2CCCOC(C)C (stereo unspecified)	inactive: -10.7%
CC1=C(c2ccc(C)cc2)S(=O)(=O)N(Cc2ccc(C(=O)Nc3ccccc3C)cc2)C1=O	inactive: -10.8%
Cc1ccc(CCNC(=O)c2ccc(CS(=O)(=O)c3ccc(Cl)cc3)o2)cc1	inactive: 5.47%
COCCNC(=O)CCCN1C(=O)CCn2nc(-c3cccn3C)cc21	inactive: -10.9%
Cc1ccc(NC(=O)/C(C#N)=C/c2cc(C)n(-c3ccc(Br)cc3)c2C)cc1C	inactive: -17.9%
CCOc1ccccc1NC(=O)n1ncc2cc(Cl)ccc21	inactive: -7.99%
COc1ccc(CCn2c(=O)[nH]c3cc(C(=O)N4CCN(c5ccccc5)CC4)ccc3c2=O)cc1OC	inactive: -18.2%
Cc1oc(-c2ccc(C(=O)NC(C)c3ccccc3)cc2)nc1CS(=O)(=O)c1ccccc1 (stereo unspecified)	inactive: -8.47%
O=C(c1ccccc1F)N1CCC(c2nc3c(nnn3Cc3cccc(F)c3)c(=O)[nH]2)CC1	inactive: -18.5%
COC(=O)c1ccccc1NC(=O)CCCN1C(=O)C(c2ccccc2)Oc2cccnc21 (stereo unspecified)	inactive: -12.5%
COc1ccc(NC(=O)Cn2c(=O)oc3cc(S(=O)(=O)N4CCCCC4C)ccc32)cc1 (stereo unspecified)	inactive: -9.49%
COc1ccc(C)cc1NS(=O)(=O)c1c(C)nc2sc(C)cn2c1=O	inactive: 2.38%
CCOc1ccccc1NC(=O)CSc1ccc2nnc(CCNS(=O)(=O)c3ccccc3)n2n1	inactive: 1.11%
Brc1ccc(-c2noc(-c3ccccc3)n2)o1	inactive: 10.7%
COCCNC(=O)CCCn1c(=O)[nH]c2ccsc2c1=O	inactive: -6.99%
COc1cc(OC)c(NC(=O)c2cc(C(C)=O)n3ccccc23)cc1Cl	inactive: -18%
COc1ccc(OCC(=O)N(Cc2cccc(OC)c2)C2CCS(=O)(=O)C2)cc1 (stereo unspecified)	inactive: -11.4%
CC(=O)Nc1ccc(NS(=O)(=O)c2cc(Br)cc3c2N(C(=O)C2CC2)CC3)cc1	inactive: -8.57%
Cc1ccc(Nc2ncnc3c2cnn3-c2ccc(C)cc2)cc1	inactive: -15.6%
CN(C)CCN(Cc1ccccc1)S(=O)(=O)c1ccc(-c2cc(C(F)(F)F)on2)s1	inactive: 3.43%
CCOc1ccc(NS(=O)(=O)c2ccc3[nH]cc(C(=O)NCCOC)c(=O)c3c2)cc1	inactive: -13.4%
CN(C)CCNC(=O)CCCn1c(=O)c2cccn2c2ccccc21	inactive: -15.6%
